This note sets out measurements from PubChem BioAssay AID1745853 (National Center for Advancing Translational Sciences (NCATS), 2022).

Some of the results follow. The main result of the screen is listed elsewhere. These columns were measured beside it and carry no call.

Test in all cases: Primary Screen for Target Class Profiling of Small Molecule Inhibitors of Methyltransferases
In assay [1] the target is Glycine N-methyltransferase (Homo sapiens) (UniProt Q14749). To be noted: purified enzyme, MTase-Glo SAH luminescence; measured here: GNMT inhibition; at 40 µM; stronger effect = lower value. Put shortly:
(§1)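 Each enzyme was assayed with SAM and its substrate. SAH formation detected by MTase-Glo luminescence; single-point 40 uM screen[…].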

For assay [2], the target named is Guanidinoacetate N-methyltransferase (Homo sapiens) (UniProt Q14353). Conditions: purified enzyme, MTase-Glo SAH luminescence; measured here: GAMT inhibition; at 40 µM; stronger effect = lower value. In short, it runs like this:
as §1

Assay [3] concerns the target Histamine N-methyltransferase (Homo sapiens) (UniProt P50135). To be noted: purified enzyme, MTase-Glo SAH luminescence; measured here: HNMT inhibition; at 40 µM; stronger effect = lower value. Put shortly: as §1
Assay [4] addresses Nicotinamide N-methyltransferase (Homo sapiens) (UniProt P40261). Conditions: purified enzyme, MTase-Glo SAH luminescence; measured here: NNMT inhibition; at 40 µM; stronger effect = lower value. Put shortly:
as §1

Assay [5] deals with Phenylethanolamine N-methyltransferase (Homo sapiens) (UniProt P11086). Conditions: purified enzyme, MTase-Glo SAH luminescence; measured here: PNMT inhibition; at 40 µM; stronger effect = lower value. In short, it runs like this: as §1
% is set by controls: 0 for no effect and ±100 for the full control effect.

In the case of `CN(Cc1cccnc1)C(=O)c1n[nH]c2c1CN(Cc1cccnc1)CC2`, the activity change, negative = inhibition is -8.19% in assay [1]; -8.39% in assay [2]; -4.33% in assay [3]; -15.6% in assay [4]; -9.14% in assay [5].
For `O=C(NCc1ccncc1)c1ccc(-c2cccs2)nc1`, in that order: 12.3%, 4.5%, 11.7%, 6.58% and 6.91%.
On to `CCOc1ccc(N(C(=O)c2ccccc2F)S(=O)(=O)c2ccc3c(c2)n(C)c(=O)n3C)cc1`, for which the activity change, negative = inhibition in assay [1] was -17.1%; in assay [2] it was 2.82%; in assay [3], -0.885%; in assay [4], -9.15%; in assay [5], -3.15%.
On the same counts, the results for `CC(C)CNC(=O)c1ccc2c(=O)n(C(C)C)c3nn(CC(=O)N(C)c4ccccc4)c(=O)n3c2c1` are 2.12%, 5.03%, 5.96%, -2.31% and 0.303%.
In the case of `O=C1CCCC2=C1C1(CCSCC1)N=C(Nc1nc3ccccc3o1)N2`, the activity change, negative = inhibition in assay [2] is -3.46%; in assay [4], -11.1%; in assay [5] it was -5.56%.
For `CNS(=O)(=O)CCNc1nc(-c2ccccn2)nc2c1c(C)nn2C`, the activity change, negative = inhibition is -10.8% in assay [1]; -2.42% in assay [2]; -5.98% in assay [3]; -6.78% in assay [4]; -7.13% in assay [5].
As for `Cc1ccc(CNC(=O)c2cc3n(n2)CC(C)(C(=O)NCCC(C)C)N(C)C3=O)cc1` (stereo not drawn), the activity change, negative = inhibition in assay [1] is 2.14%; in assay [2], 3.67%; in assay [3], 1.35%; in assay [4] it was 8.06%; in assay [5], 1.12%.
On the same counts, the results for `CCCn1c(=O)c2ccc(Cl)cc2n2c(=O)n(CC(=O)NCc3ccc(C)cc3)nc12` are 4.54%, 0%, 5.97%, 4.35% and 3.95%.
On the same counts, the results for `CCCN1C(=O)c2cc(-c3ccccc3)nn2CC1(C)C(=O)NCc1ccccc1OC` (stereo not drawn) are -2.85%, 2.18%, 0.512%, -4.03% and -2.04%.
For `CC1(C(=O)NCc2ccc(F)cc2)Cn2cnc(C(=O)Nc3ccc4c(c3)OCCO4)c2C(=O)N1C1CC1` (stereo not drawn), in that order: -5.76%, 0%, 0.635%, -3.55% and -4.04%.
With `CC(C)CNC(=O)c1ccc2c(=O)n(Cc3ccccc3)c3nn(Cc4cccc(Cl)c4)c(=O)n3c2c1`, the activity change, negative = inhibition turned out to be 0.852% in assay [1]; 5.78% in assay [2]; 1.93% in assay [3]; 0.658% in assay [4]; 1.64% in assay [5].
On the same counts, the results for `Cc1cc(C)c(NS(=O)(=O)c2ccc3c(c2)n(C)c(=O)n3C)c(C)c1` are -6.08%, 2.2%, -9.52%, -35.6% and -6.45%.
On the same counts, the results for `CC1CCC(NC(=O)Cn2c(=O)oc3cc(S(=O)(=O)NCc4ccccc4)ccc32)CC1` (stereo not drawn) are -5.07%, 4.84%, -4.29%, -2.51% and -10.4%.
Turning to `CC1CC(C)CN(CCCN2C(=O)c3nc4ccccc4n3CC2(C)C(=O)NC2CCCCCC2)C1` (stereo not drawn), the activity change, negative = inhibition was -4.11% in assay [1]; 4.13% in assay [2]; -0.445% in assay [3]; 3.5% in assay [4]; -2.17% in assay [5].
For `CCCN1C(=O)c2c(C(=O)NCCc3ccccc3)ncn2CC1(C)C(=O)NCc1ccc(OC)cc1` (stereo not drawn), the activity change, negative = inhibition in assay [1] was 1.34%; in assay [2], 0.294%; in assay [3], -0.868%; in assay [4], 4.66%; in assay [5] it was 3.9%.
On the same counts, the results for `CC1(C(=O)NC2CCCC2)Cn2c(ccc2-c2ccco2)C(=O)N1c1ccc2c(c1)OCCO2` (stereo not drawn) are -6.64%, 0%, 8.64%, 6.92% and 1.4%.
Regarding `CN1C(=O)CC[C@]2(C(=O)NCc3ccco3)CCCC[C@@H]12`, the activity change, negative = inhibition in assay [1] is -2.51%; in assay [2] it was -2.79%; in assay [3] it was 1.86%; in assay [4], -2.77%; in assay [5], 0.365%.
On the same counts, the results for `Cn1c(=O)c2ccc(C(=O)NC3CCCC3)cc2n2c(=O)n(Cc3c(F)cccc3Cl)nc12` are 1.46%, 5.47%, 0.466%, 2.85% and 1.1%.
Take `COc1cccc(CNc2nc3c(-c4ccccc4)nnn3c3ccccc23)c1`: the activity change, negative = inhibition is 0.118% in assay [1]; 0% in assay [2]; 4.52% in assay [3]; 4.97% in assay [4]; -1.21% in assay [5].
On the same counts, the results for `COc1cccc(CN2C(=O)c3cc4ccc(OC)cc4n3CC2(C)C(=O)NC2CCCCC2)c1` (stereo not drawn) are 5.49%, 5.28%, 5.42%, -0.351% and 2.15%.
On the same counts, the results for `CCOCCCNC(=O)c1cc2c(=O)[nH]c(-c3ccccc3)cn2n1` are -6.53%, -4.27%, -4.38%, -3.96% and -20.1%.
On the same counts, the results for `N#Cc1ccc2[nH]cc(CCCCN3CCN(c4ccc5oc(C(N)=O)cc5c4)CC3)c2c1` are 4.58%, 6.01%, -27.3%, -50.9% and -10.1%.
On to `COc1cccc(CN2CCC(n3cc[nH]c3=O)CC2)c1`, for which the activity change, negative = inhibition in assay [1] was -5.73%; in assay [2], -8.43%; in assay [3] it was -6.4%; in assay [4], -15.1%; in assay [5], -7.17%.
On the same counts, the results for `CC(C)CCn1c(=O)c2ccccc2n2c(SCC(=O)Nc3ccccc3F)nnc12` are -8.54%, 0.091%, 6.92%, -15.4% and 2.41%.
For `CC(C)CCN1C(=O)c2ccc(-c3ccco3)n2CC1(C)C(=O)NC1CCCC(C)C1C` (stereo not drawn), in that order: -3.07%, 0%, 3.62%, -6.45% and -0.937%.
Turning to `Cc1cc(C(F)(F)F)nc(CCNC(=O)C2NCCc3[nH]cnc32)n1` (stereo not drawn), the activity change, negative = inhibition in assay [1] is -0.694%; in assay [2] it was -0.182%; in assay [3] it was 0.312%; in assay [4] it was -0.69%; in assay [5], 0.358%.
Take `CCN1CCN(C(=O)c2cc3n(n2)CC(C)(C(=O)NC2CCCCCC2)N(C)C3=O)CC1` (stereo not drawn): the activity change, negative = inhibition in assay [1] is -0.111%; in assay [2], -3.99%; in assay [3], 1.41%; in assay [4], -7.93%; in assay [5], -3.82%.
Regarding `O=C1CC(C(=O)Nc2cccc(Cl)c2)n2ncnc2N1` (stereo not drawn), the activity change, negative = inhibition in assay [1] is -3.7%; in assay [2] it was -2.42%; in assay [3], -2%; in assay [4], -3.21%; in assay [5], -7.31%.
On the same counts, the results for `CC(C)Cn1c(=O)c2ccc(C(=O)NC(C)C)cc2n2c(=O)n(Cc3ccccc3)nc12` are 1.91%, 8.52%, 1.31%, 1.45% and 0.201%.
For `COc1ccc(CNC(=O)CSc2nnc3n(CCC(C)C)c(=O)c4ccccc4n23)cc1`, in that order: 0.072%, 1.46%, -0.264%, -6.99% and -1.35%.
